Assay results: PubChem BioAssay AID1345083 (National Center for Advancing Translational Sciences (NCATS), 2018)
Values joined by “and” are separate entries in the source; they are usually repeats but may differ in a detail not shown here. Equal entries are not always repeated. The whole screen tested about 94,000 compounds, of which about 6,200 (6.6%) were called active. The inconclusive results got no clear call from the source; some entries with a clear call stand among them for comparison. The call rests on the fitted dose curve; in most records, active means well fitted inhibition curve with a large enough effect; inconclusive means small, poorly fitted or top-dose-only effect; inactive means flat fitted curve, though single readings scatter. Potencies of inconclusive entries are doubtful fits and often do not repeat.

test: Cytotoxic Profiling in HEK 293 Cell Line of Diverse Libraries Using Quantitative High-Throughput Screening; settings: HEK 293 viability, ATP luminescence (CellTiter-Glo), 48-72 h; series mostly up to 115 µM; further: nearly all actives have a fitted effect of over 60% in size
Outline: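 ATP-coupled CellTiter-Glo luminescence served as viability read-out, recorded 10 min after reagent addition at room temperature. HEK 293 cells, 250 cells/well, had been incubated with pintool-transferred compound for 48 or 72 hr at 37 degree Celsius.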
Potency means the concentration at half of the fitted maximal effect; tags describe the fitted curve by direction and shape.

Row | Compound | Potency
1 | c1cc(-c2noc([C@@H]3CCCN3C3CCC3)n2)cc(N2CCOCC2)n1 | inconclusive: 100 µM [inhibitor, partial curve]
2 | O=C(Nc1ccc(Cl)cc1)NC1CCN(c2ccc3nnc(-c4ccccc4)n3n2)C1 (stereo not drawn) | inconclusive: 28.2 µM [inhibitor, full curve]
3 | CN(C)C[C@@H]1CN(C2CCOCC2)C[C@H]1NC(=O)c1cc2ccccc2[nH]1 | active: 31.6 µM
4 | COc1cc(-c2cnc3n[nH]c(-c4ccc(F)cc4C)c3n2)ccn1 | active: 79.4 µM
5 | O=C(C1CCN(Cc2ccccc2-c2ccccc2F)CC1)N1CCCC1 | inconclusive: 63.1 µM [inhibitor, partial curve, poor fit]
6 | CCn1ccc(C(=O)N2CCC(c3noc(-c4ccccc4)n3)C2)n1 (stereo not drawn) | inconclusive: 50.1 µM [inhibitor, partial curve, poor fit]
7 | COc1ccc(-c2nc(-c3c(C)noc3C)cc3c2cc(-c2ccccc2)n3C)cn1 | inconclusive: 50.1 µM [inhibitor, full curve]
8 | Cc1cc(C(=O)N2C[C@@H](COc3ccccc3)[C@H](C(N)=O)C2)nn1C | inactive
9 | O=C(Cc1cccc(F)c1)N1CCN(C(=O)c2nnn3c2COC(c2ccccc2)C3)CC1 (stereo not drawn) | inactive
10 | CN(C)CC(=O)Nc1ccc(C(=O)N2CCCC3(CCNC3)C2)cc1 (stereo not drawn) | inactive
11 | CSCCC(=O)N[C@H]1CN(c2cc(C3CC3)ncn2)C[C@@H]1C1CC1 | inactive
12 | CC(C)Cc1cc(C(=O)N2CCCC(C)(c3ccccc3)C2)no1 (stereo not drawn) | inconclusive: 56.2 µM [inhibitor, partial curve, poor fit]
13 | O=C(c1ccc(Oc2ccccc2)cc1)N1CCNc2cnc(Nc3cccc(C(F)(F)F)c3)nc2C1 | active: 22.4 µM
14 | O=C(NC1COC1)c1ccc2c(c1)C1(CCN(CC3CC3)C1)CN2Cc1ccccc1 (stereo not drawn) | inconclusive: 35.5 µM [inhibitor, partial curve, poor fit]
15 | C=CCNC(=O)c1coc(COc2ccc3c(c2)C(c2cccc(C)c2)N(C(=O)C2CC2)CC3)n1 (stereo not drawn) | active: 35.5 µM
16 | O=C([C@@H]1C[C@H](Oc2ccccc2)CN1C(=O)CN1CCCCCC1)N1CCCC1 | inconclusive: 70.8 µM [inhibitor, single point]
17 | O=C(Nc1ccc(Cl)cc1)N1CCc2nc(C3CC3)nc(-c3ccc(Cl)cc3)c2C1 | active: 28.2 µM
18 | CC(C)c1ccc(CN2CCC3(CC2)COCCN3C(=O)c2ccc3[nH]ncc3c2)cc1 | inconclusive: 100 µM [inhibitor, partial curve]
19 | O=c1c2ccccc2cnn1Cc1nc(-c2ccc3nc[nH]c3c2)no1 | inconclusive: 89.1 µM [inhibitor, single point]
20 | O=C(CN1C(=O)CNC1=O)N[C@H](c1ccc2c(c1)CCO2)C1CC(O)C1 (stereo partly drawn) | inactive
21 | CN(C)c1cccc(C(=O)NC2CCN(c3cc(-c4ccc(F)cc4)[nH]n3)CC2)c1 | inconclusive: 50.1 µM [inhibitor, partial curve, poor fit]

Row | Compound | Potency
22 | COc1ccc(C(C)NC(=O)c2cc(NC(C)=O)cc3nc(C)ccc23)cc1 (stereo not drawn) | inconclusive: 89.1 µM [inhibitor, single point]
23 | Cn1cccc1-c1noc(C2CCN(C(=O)CCn3cnc4ccccc43)CC2)n1 | inconclusive: 50.1 µM [inhibitor, partial curve]
24 | Fc1ccccc1-c1noc(N2CCOCC2)n1 | inconclusive: 10 µM [inhibitor, full curve]
25 | Cc1cccc(C(=O)N2CCCC(c3noc(COc4ccccc4)n3)C2)c1 (stereo not drawn) | inconclusive: 79.4 µM [inhibitor, single point]
26 | O=C(c1cc(CN2CCC(Cc3ccccc3)CC2)on1)N1CCN2CCCC2C1 (stereo not drawn) | inconclusive: 89.1 µM [inhibitor, single point]
27 | CNC(=O)c1cc(C)nc2onc(C3CCN([S+](C)(=O)[O-])C3)c12 (stereo not drawn) | inactive
28 | COc1ccc(Cl)cc1C(=O)NC1CCN(c2cc(-c3ccc(F)cc3)[nH]n2)C1 (stereo not drawn) | inconclusive: 22.4 µM [inhibitor, full curve]
29 | O=C(Cn1cccc1-c1nc(-c2ccc(F)cc2)no1)N1CCN(c2ccccc2F)CC1 | inconclusive: 35.5 µM [inhibitor, full curve, poor fit]
30 | CS(=O)(=O)N1CCC(c2nc(CCOCC3CC3)no2)C1 (stereo not drawn) | inactive
31 | COc1ccc(-c2cnc([C@@H]3COCCN3Cc3nc4ccccc4n3C)[nH]2)cc1 | inconclusive: 112 µM [inhibitor, partial curve, poor fit]
32 | Cc1ncc2n1C(=O)N(C1CCN(Cc3cccc4ccccc34)CC1)C2 | inconclusive: 35.5 µM [inhibitor, partial curve, poor fit] and inconclusive: 44.7 µM [inhibitor, partial curve, poor fit]
33 | COCCN1CCCCCC(O)c2cc(C(=O)NCCCc3ccccc3)ccc21 (stereo not drawn) | inconclusive: 56.2 µM [inhibitor, partial curve, poor fit]
34 | CN(Cc1ccon1)C(=O)C1CCN(C(=O)C2CCC2)CC1 | inactive
35 | CSc1ccc(-c2cccc(C(=O)NCCN[S+](=O)([O-])c3cccc(C(F)(F)F)c3)c2)cc1 | inconclusive: 8.91 µM [inhibitor, partial curve, poor fit]
36 | Cc1ccc(Nc2ccnc(N3CCC(C(=O)NCc4ccc(F)cc4)CC3)n2)cc1 | inconclusive: 31.6 µM [inhibitor, partial curve, poor fit]
37 | Cc1ccc(-c2cc(C(=O)NCc3ccc4c(c3)OCO4)c3cnn(C)c3n2)c(C)c1 | inconclusive: 56.2 µM [inhibitor, partial curve, poor fit]
38 | COc1cccc(-c2cn3cc(C(=O)NCc4cccc(C(F)(F)F)c4)nc3s2)c1 | inconclusive: 20 µM [inhibitor, full curve, poor fit]
39 | O=C(O)c1ccnc(-c2ccnc(NCCCN3CCCC3=O)n2)c1 | inactive
40 | O=C(c1ccccc1F)N1CCCC2(C1)C(=NC1CCCC1)NC(=O)N2c1cccnc1 (stereo not drawn) | inactive
41 | COC(=O)c1ccc(CN2C(=O)[C@@H]3C[C@@H](O)CN3C3(CN(Cc4ccc(OC)c5ccccc45)C3)C2=O)cc1 | inconclusive: 50.1 µM [inhibitor, partial curve, poor fit]
42 | O=C(NCc1nnc2c(-c3nc(C4CC4)no3)cccn12)c1ccc2ccccc2n1 | inconclusive: 79.4 µM [inhibitor, partial curve, poor fit]

Row | Compound | Potency
43 | CN(Cc1ccc(F)cc1)C(=O)c1ccc(C(F)(F)F)cc1 | inconclusive: 112 µM [inhibitor, partial curve, poor fit]
44 | Cc1ccccc1CCC1CCCN(C(=O)C2(C)CC2)C1 (stereo not drawn) | active: 22.4 µM
45 | CC1=C[C@@H](CNC(=O)c2cnccn2)[C@H](C(C)C)C[C@H]1Cc1nnc(-c2ccccc2F)o1 | active: 35.5 µM
46 | OCC1(CN2CCCC2)CCN(Cc2cnn(-c3ccccc3)c2)CC1 | inconclusive: 28.2 µM [inhibitor, full curve, poor fit]
47 | CC(C)n1cc2cc(C(=O)N3CCN(c4ccc(F)cc4)CC3)sc2c1 | inconclusive: 50.1 µM [inhibitor, partial curve, poor fit]
48 | COc1cccc(CNC(=O)C2CCCCc3nnc(-c4ccccc4)n32)c1 (stereo not drawn) | inactive
49 | CCc1nc2c(c(-c3ccc(O)cc3)n1)CCN(Cc1ccc(OC(F)(F)F)cc1)CC2 | inconclusive: 50.1 µM [inhibitor, partial curve, poor fit]
50 | C=CCNC(=O)[C@@H]1Cc2cn(CC=C)c3cccc(c23)[C@H](CC(C)C)N1 | inconclusive: 70.8 µM [inhibitor, partial curve, poor fit]
51 | CCCNC(=O)NC1CCN(C(=O)N2CC3CC(C2)[C@H]2CCCC(=O)N2C3)CC1 (stereo partly drawn) | inactive
52 | CCN(CCNC(=O)C1CCCCC(=O)N1)Cc1ccccc1 (stereo not drawn) | inactive
53 | COCCC(=O)N1CCCCCNC(=O)[C@@H]2CCCC[C@@H]21 | inactive
54 | CC(C(=O)N1CC(Oc2ccc(-c3noc(-c4ccncc4)n3)cc2)C1)c1ccccc1 (stereo not drawn) | inconclusive: 17.8 µM [inhibitor, full curve, poor fit]
55 | CC(C)N1CCC(F)(c2nc(-c3ccccc3)no2)CC1 | inconclusive: 89.1 µM [inhibitor, single point]
56 | COc1cc(F)cc(-c2ccc(COc3ccc4c(cnn4CCC(=O)O)c3)cc2)c1 | inconclusive: 100 µM [inhibitor, partial curve]
57 | COc1ccccc1C(=O)N1CCCCCC1c1nc(C2CC2)no1 (stereo not drawn) | inconclusive: 50.1 µM [inhibitor, partial curve, poor fit]
58 | O=C(O)COc1ccc(-c2nccc3c2C(=O)N(Cc2ccccc2)CC(COc2ccc4cccnc4c2)O3)cc1 (stereo not drawn) | inactive
59 | CCCCc1ncc(-c2nccn2Cc2noc(CC(C)C)n2)[nH]1 | inconclusive: 89.1 µM [inhibitor, single point]
60 | Cc1ccc(C(=O)N2CCc3nc(C4CC4)nc(-c4ccc(Cl)cc4)c3C2)cc1 | inconclusive: 89.1 µM [inhibitor, single point]
61 | Cc1ccc(C(=O)N2CCCCCCNC(=O)[C@@H]3C[C@@H](c4nc(C(C)C)no4)C[C@@H]32)s1 | inconclusive: 89.1 µM [inhibitor, single point]
62 | CC(=O)NCC1CN(S(=O)(=O)C(C)C)CC12CCCCC2 (stereo not drawn) | inactive
63 | CCCc1ncncc1C(=O)N(CCO)Cc1nccn1C | inconclusive: 22.4 µM [inhibitor, full curve, poor fit]
